Laboratory results: the antibiotic and cytotoxicity screens of Wong et al. (2023)
Some of the results follow.

What was measured:
HSkMC = human skeletal muscle cells; test: cytotoxicity call (relative viability < 0.9); conditions: 10 µM
HepG2 = test: cytotoxicity call (relative viability < 0.9); conditions: 10 µM
S. aureus RN4220 = test: growth inhibition call (relative growth <= 0.2); conditions: 50 µM

Cc1nc2c(c(N3CCOCC3)n1)OCC(=O)N2
cytotoxicity call (HSkMC): inactive
cytotoxicity call (HepG2): inactive
growth inhibition call (S. aureus RN4220): inactive

C=CCSc1n[nH]c(=O)[nH]c1=O
cytotoxicity call (HSkMC): inactive
cytotoxicity call (HepG2): inactive
growth inhibition call (S. aureus RN4220): inactive

Cc1noc(C)c1S(=O)(=O)N(C)C[C@@H]1OCCCC[C@@H](C)Oc2ccc(NS(C)(=O)=O)cc2C(=O)N([C@@H](C)CO)C[C@H]1C
cytotoxicity call (HSkMC): inactive
cytotoxicity call (HepG2): inactive
growth inhibition call (S. aureus RN4220): inactive

Cc1c(-c2ccc(-c3ccc(Cl)c(Cl)c3)o2)nc(-c2ccccc2)c2c1CO[Si]2(C(C)C)C(C)C
cytotoxicity call (HSkMC): inactive
cytotoxicity call (HepG2): inactive
growth inhibition call (S. aureus RN4220): inactive

NC(=O)CC[C@H](N)C(=O)O
cytotoxicity call (HSkMC): inactive
cytotoxicity call (HepG2): inactive
growth inhibition call (S. aureus RN4220): inactive

Cc1ccc(C(=O)CCNc2ccc3c(c2)oc2ccccc23)o1
cytotoxicity call (HSkMC): inactive
cytotoxicity call (HepG2): inactive
growth inhibition call (S. aureus RN4220): inactive

C[C@@H]1CN([C@@H](C)CO)C(=O)c2cccc(NC(=O)Nc3ccc(C(F)(F)F)cc3)c2O[C@H]1CN(C)S(=O)(=O)c1ccc(F)cc1
cytotoxicity call (HSkMC): inactive
cytotoxicity call (HepG2): inactive
growth inhibition call (S. aureus RN4220): inactive

C[C@@H]1CN([C@@H](C)CO)C(=O)Cc2cc(NC(=O)C3CCCCC3)ccc2O[C@@H]1CN(C)C(=O)Nc1cccc2ccccc12
cytotoxicity call (HSkMC): inactive
cytotoxicity call (HepG2): inactive
growth inhibition call (S. aureus RN4220): inactive

COc1cccc(S(=O)(=O)N(C)C[C@@H]2OCc3cnnn3CCCC(=O)N([C@H](C)CO)C[C@@H]2C)c1
cytotoxicity call (HSkMC): inactive
cytotoxicity call (HepG2): inactive
growth inhibition call (S. aureus RN4220): inactive

C[C@H](CO)N1C[C@H](C)[C@H](CN(C)Cc2ccccc2)OCCCC[C@H](C)Oc2ccc(NC(=O)Cc3ccccc3)cc2C1=O
cytotoxicity call (HSkMC): inactive
cytotoxicity call (HepG2): inactive
growth inhibition call (S. aureus RN4220): inactive

O=C(C[C@@H]1C=C[C@H](NS(=O)(=O)c2ccc(F)cc2)[C@H](CO)O1)N1CCC(Cc2ccccc2)CC1
cytotoxicity call (HSkMC): inactive
cytotoxicity call (HepG2): inactive
growth inhibition call (S. aureus RN4220): inactive

C[C@H]1CCCCO[C@H](CN(C)C(=O)NC2CCCCC2)[C@@H](C)CN([C@@H](C)CO)C(=O)c2cc(NC(=O)C3CCCCC3)ccc2O1
cytotoxicity call (HSkMC): inactive
cytotoxicity call (HepG2): inactive
growth inhibition call (S. aureus RN4220): inactive

CCCC[C@H](C)C[C@H](O)/C=C/[C@H]1[C@H](O)CC(=O)[C@@H]1CCCC/C=C/C(=O)O
cytotoxicity call (HSkMC): inactive
cytotoxicity call (HepG2): inactive
growth inhibition call (S. aureus RN4220): inactive

O=S(=O)([O-])c1cc(O)c2c(N=Nc3ccc(Nc4ccccc4)c4c(S(=O)(=O)[O-])cccc34)cc(S(=O)(=O)[O-])cc2c1.[Na+].[Na+].[Na+]
cytotoxicity call (HSkMC): inactive
cytotoxicity call (HepG2): inactive
growth inhibition call (S. aureus RN4220): inactive

C[C@@H](O)[C@@H](O)[C@@H](O)C/C=N/NC(=O)c1ccc(C(=O)NO)cc1
cytotoxicity call (HSkMC): inactive
cytotoxicity call (HepG2): inactive
growth inhibition call (S. aureus RN4220): inactive

COCC(=O)N1C[C@@H](C)[C@H](OC)CN(C)C(=O)c2cc(NC(=O)Nc3cccc(F)c3)ccc2OC[C@H]1C
cytotoxicity call (HSkMC): inactive
cytotoxicity call (HepG2): inactive
growth inhibition call (S. aureus RN4220): inactive

C[C@H](CO)N1C[C@H](C)[C@H](CN(C)C(=O)Nc2cccc3ccccc23)Oc2ccc(NC(=O)Nc3ccc(C(F)(F)F)cc3)cc2CC1=O
cytotoxicity call (HSkMC): inactive
cytotoxicity call (HepG2): inactive
growth inhibition call (S. aureus RN4220): inactive

O=C(NCCN1CCCC1)[C@H]1[C@H](CO)[C@H]2Cn3c(cccc3=O)[C@@H]1N2C(=O)c1ccccc1
cytotoxicity call (HSkMC): inactive
cytotoxicity call (HepG2): inactive
growth inhibition call (S. aureus RN4220): inactive

Cc1noc(C)c1NC(=O)N(C)C[C@@H]1OCCCC[C@H](C)Oc2ccc(NS(=O)(=O)c3ccccc3)cc2C(=O)N([C@@H](C)CO)C[C@@H]1C
cytotoxicity call (HSkMC): inactive
cytotoxicity call (HepG2): inactive
growth inhibition call (S. aureus RN4220): inactive

O=C(C[C@H]1C[C@H]2c3cc(NS(=O)(=O)c4ccc(F)cc4)ccc3O[C@H]2[C@@H](CO)O1)NCCc1ccccc1
cytotoxicity call (HSkMC): inactive
cytotoxicity call (HepG2): inactive
growth inhibition call (S. aureus RN4220): inactive

O=C(C[C@H]1C[C@H]2c3cc(NC(=O)NC4CCCC4)ccc3O[C@H]2[C@@H](CO)O1)NCc1ccc(Oc2ccccc2)cc1
cytotoxicity call (HSkMC): inactive
cytotoxicity call (HepG2): inactive
growth inhibition call (S. aureus RN4220): inactive

CO[C@@H]1CN(C)C(=O)c2ccc(NC(=O)CN(C)C)cc2OC[C@@H](C)N(C(=O)C2CCOCC2)C[C@H]1C
cytotoxicity call (HSkMC): inactive
cytotoxicity call (HepG2): inactive
growth inhibition call (S. aureus RN4220): inactive

C[C@@H]1CN([C@H](C)CO)C(=O)c2cc(NC(=O)CCC(F)(F)F)ccc2O[C@@H](C)CCCCO[C@@H]1CN(C)Cc1ccccc1
cytotoxicity call (HSkMC): inactive
cytotoxicity call (HepG2): inactive
growth inhibition call (S. aureus RN4220): inactive

COc1ccc(NC(=O)N(C)C[C@@H]2OCCCC[C@@H](C)Oc3ccc(NC(=O)Nc4c(C)noc4C)cc3C(=O)N([C@@H](C)CO)C[C@H]2C)cc1
cytotoxicity call (HSkMC): inactive
cytotoxicity call (HepG2): inactive
growth inhibition call (S. aureus RN4220): inactive

C[C@H](CO)N1C[C@H](C)[C@@H](CN(C)S(=O)(=O)c2cn(C)cn2)Oc2c(NS(=O)(=O)c3ccc(F)cc3)cccc2C1=O
cytotoxicity call (HSkMC): inactive
cytotoxicity call (HepG2): inactive
growth inhibition call (S. aureus RN4220): inactive

C[C@@H]1CN([C@@H](C)CO)C(=O)Cc2cc(NS(=O)(=O)c3ccc(F)cc3)ccc2O[C@@H]1CN(C)C(=O)Nc1cccc2ccccc12
cytotoxicity call (HSkMC): inactive
cytotoxicity call (HepG2): inactive
growth inhibition call (S. aureus RN4220): inactive

C[C@@H]1CCCCO[C@H](CN(C)S(=O)(=O)c2ccc(F)cc2)[C@@H](C)CN([C@@H](C)CO)C(=O)c2cc(NS(=O)(=O)c3cn(C)cn3)ccc2O1
cytotoxicity call (HSkMC): inactive
cytotoxicity call (HepG2): inactive
growth inhibition call (S. aureus RN4220): inactive

COc1ccccc1S(=O)(=O)N(C)C[C@@H]1OCc2cnnn2CCCC(=O)N([C@@H](C)CO)C[C@H]1C
cytotoxicity call (HSkMC): inactive
cytotoxicity call (HepG2): inactive
growth inhibition call (S. aureus RN4220): inactive

C[C@H](CO)N1C[C@H](C)[C@H](CN(C)S(=O)(=O)c2ccccc2)Oc2ccc(NS(=O)(=O)c3ccc(F)cc3)cc2CC1=O
cytotoxicity call (HSkMC): inactive
cytotoxicity call (HepG2): inactive
growth inhibition call (S. aureus RN4220): inactive

C[C@H]1CN([C@@H](C)CO)C(=O)c2c(c3ccccc3n2C)-c2ccccc2CO[C@@H]1CN(C)C(=O)NC1CCCCC1
cytotoxicity call (HSkMC): inactive
cytotoxicity call (HepG2): inactive
growth inhibition call (S. aureus RN4220): inactive

Cc1ccc(S(=O)(=O)N(C)C[C@H]2Oc3ccc(NS(=O)(=O)c4ccccc4)cc3C(=O)N([C@@H](C)CO)C[C@H]2C)cc1
cytotoxicity call (HSkMC): inactive
cytotoxicity call (HepG2): inactive
growth inhibition call (S. aureus RN4220): inactive

CNC1C(OC2C(OC3C(O)C(O)C(NC(=N)N)C(O)C3NC(=N)N)OC(C)C2(O)CO)OC(CO)C(O)C1O.O=S(=O)(O)O (stereo not given)
cytotoxicity call (HSkMC): inactive
cytotoxicity call (HepG2): inactive
growth inhibition call (S. aureus RN4220): inactive

CCOC(=O)c1cc2c(c(-c3cccc(Br)c3)n1)[C@@H](CCOC)N([S@](=O)C(C)(C)C)C2
cytotoxicity call (HSkMC): inactive
cytotoxicity call (HepG2): inactive
growth inhibition call (S. aureus RN4220): inactive

COc1ccccc1CNC(=O)C[C@@H]1C[C@@H]2c3cc(NC(=O)C4CCOCC4)ccc3O[C@@H]2[C@@H](CO)O1
cytotoxicity call (HSkMC): inactive
cytotoxicity call (HepG2): inactive
growth inhibition call (S. aureus RN4220): inactive

C[C@@H]1CN([C@@H](C)CO)C(=O)Cc2cc(NC(=O)NC3CCCCC3)ccc2O[C@@H]1CN(C)Cc1ccc(Cl)c(Cl)c1
cytotoxicity call (HSkMC): inactive
cytotoxicity call (HepG2): active
growth inhibition call (S. aureus RN4220): inactive

COc1ccc(NC(=O)N(C)C[C@H]2Oc3ccc(NS(=O)(=O)c4cn(C)cn4)cc3C(=O)N([C@@H](C)CO)C[C@H]2C)cc1
cytotoxicity call (HSkMC): inactive
cytotoxicity call (HepG2): inactive
growth inhibition call (S. aureus RN4220): inactive

COc1ccc(NC(=O)Nc2ccc3c(c2)C(=O)N([C@@H](C)CO)C[C@H](C)[C@@H](CN(C)C(=O)Nc2ccc4c(c2)OCO4)OCCCC[C@H](C)O3)cc1
cytotoxicity call (HSkMC): inactive
cytotoxicity call (HepG2): inactive
growth inhibition call (S. aureus RN4220): inactive

O=c1occ(CO)c(O)c1CN1CCCCC1
cytotoxicity call (HSkMC): inactive
cytotoxicity call (HepG2): inactive
growth inhibition call (S. aureus RN4220): inactive

Cc1cc(C)c(S(=O)(=O)Nc2cc([C@@H](C(=O)OC(C)C)C(=O)C(F)(F)F)c(O)c3ccccc23)c(C)c1
cytotoxicity call (HSkMC): inactive
cytotoxicity call (HepG2): inactive
growth inhibition call (S. aureus RN4220): inactive

C[C@@H]1CN([C@H](C)CO)C(=O)Cc2cc(NC(=O)Nc3ccccc3)ccc2O[C@@H]1CN(C)Cc1ccc(C(F)(F)F)cc1
cytotoxicity call (HSkMC): active
cytotoxicity call (HepG2): active
growth inhibition call (S. aureus RN4220): inactive

CCCNC(=O)N[C@H]1CC[C@@H](CC(=O)N2CCN(C)CC2)O[C@@H]1CO
cytotoxicity call (HSkMC): inactive
cytotoxicity call (HepG2): inactive
growth inhibition call (S. aureus RN4220): inactive

Cc1noc(C)c1S(=O)(=O)Nc1ccc2c(c1)C(=O)N([C@H](C)CO)C[C@H](C)[C@H](CN(C)Cc1ccncc1)O2
cytotoxicity call (HSkMC): inactive
cytotoxicity call (HepG2): inactive
growth inhibition call (S. aureus RN4220): inactive

CN(c1cccc(C(N)=O)c1)S(C)(=O)=O
cytotoxicity call (HSkMC): inactive
cytotoxicity call (HepG2): inactive
growth inhibition call (S. aureus RN4220): inactive

COc1ccc2c3c([nH]c2c1)[C@H](CO)N(C[C@]13CCN(CC1)CC1CCCC1)C(=O)CN1CCOCC1
cytotoxicity call (HSkMC): inactive
cytotoxicity call (HepG2): inactive
growth inhibition call (S. aureus RN4220): inactive

C[C@H](CO)N1C[C@H](C)[C@H](CN(C)C(=O)c2ccc(N3CCN(C)CC3)cc2)OCc2cn(nn2)CCCC1=O
cytotoxicity call (HSkMC): inactive
cytotoxicity call (HepG2): inactive
growth inhibition call (S. aureus RN4220): inactive

C[C@H]1CN([C@@H](C)CO)C(=O)c2cc(Br)cnc2O[C@@H]1CN(C)S(C)(=O)=O
cytotoxicity call (HSkMC): inactive
cytotoxicity call (HepG2): inactive
growth inhibition call (S. aureus RN4220): inactive

O=C1[C@H](Cc2ccc(C(F)(F)F)cc2)CCn2cc(nn2)COC[C@@H]2CCCCN2C(=O)[C@H](Cc2ccc(C(F)(F)F)cc2)CCn2cc(nn2)COC[C@@H]2CCCCN12
cytotoxicity call (HSkMC): inactive
cytotoxicity call (HepG2): inactive
growth inhibition call (S. aureus RN4220): inactive

C[C@@H]1CCCCO[C@@H](CN(C)Cc2ccc3c(c2)OCO3)[C@H](C)CN([C@H](C)CO)C(=O)c2cc(NS(=O)(=O)c3ccc(Cl)cc3)ccc2O1
cytotoxicity call (HSkMC): inactive
cytotoxicity call (HepG2): active
growth inhibition call (S. aureus RN4220): inactive

COc1ccc(S(=O)(=O)N(C)C[C@H]2OCCCC[C@@H](C)Oc3ccc(NC(=O)CCC(F)(F)F)cc3C(=O)N([C@H](C)CO)C[C@@H]2C)cc1
cytotoxicity call (HSkMC): inactive
cytotoxicity call (HepG2): inactive
growth inhibition call (S. aureus RN4220): inactive

Cc1noc(C)c1NC(=O)N(C)C[C@H]1Oc2c(NC(=O)c3cnccn3)cccc2C(=O)N([C@H](C)CO)C[C@H]1C
cytotoxicity call (HSkMC): inactive
cytotoxicity call (HepG2): inactive
growth inhibition call (S. aureus RN4220): inactive

CC(C)C[C@H]1NC(=O)N(C)C1=O
cytotoxicity call (HSkMC): inactive
cytotoxicity call (HepG2): inactive
growth inhibition call (S. aureus RN4220): inactive

C[C@H]1CCCCO[C@@H](CN(C)C(=O)Nc2ccc(C(F)(F)F)cc2)[C@@H](C)CN([C@@H](C)CO)C(=O)c2cc(NC(=O)Nc3ccc4c(c3)OCO4)ccc2O1
cytotoxicity call (HSkMC): inactive
cytotoxicity call (HepG2): inactive
growth inhibition call (S. aureus RN4220): inactive

C[C@H]1CN([C@@H](C)CO)C(=O)c2cc(NS(=O)(=O)c3ccc(Cl)cc3)ccc2O[C@@H]1CN(C)S(C)(=O)=O
cytotoxicity call (HSkMC): inactive
cytotoxicity call (HepG2): inactive
growth inhibition call (S. aureus RN4220): inactive

C[C@@H]1CN([C@H](C)CO)C(=O)c2cc(NC(=O)CCN3CCOCC3)ccc2O[C@H]1CN(C)S(=O)(=O)c1ccc(Cl)cc1
cytotoxicity call (HSkMC): inactive
cytotoxicity call (HepG2): inactive
growth inhibition call (S. aureus RN4220): inactive

Cc1ccc(S(=O)(=O)Nc2ccc3c(c2)C(=O)N([C@H](C)CO)C[C@H](C)[C@H](CN(C)S(C)(=O)=O)O3)cc1
cytotoxicity call (HSkMC): inactive
cytotoxicity call (HepG2): inactive
growth inhibition call (S. aureus RN4220): inactive
